# Reference: the supplement of paper PMC12217912
# Some of the results follow. Sequences were assembled here from the parent chain. Inactive controls read about 0.05.
# B1: TEV protease; numbered along this chain (parent)
# chain: MGESLFKGPRDYNPISSSICHLTNESDGHTTSLYGIGFGPFIITNKHLFRRNNGTLVVQSLHGVFKVKDTTTLQQHLVDGRDMIIIRMPKDFPPFPQKLKFREPQREERICLVTTNFQTKSMSSMVSDTSCTFPSGDGIFWKHWIQTKDGQCGSPLVSTRDGFIVGIHSASNFTNTNNYFTSVPKNFMELLTNQEAQQWVSGWRLNADSVLWGGHKVFMVKPEEPFQPVKEATQL
# Variants of: B1
# Assay: raw area under fraction-flipped curve 0-4 h after induction (AUC4h, not background-subtracted), DNA-recorder readout of cleavage of the substrate (dimensionless); higher = more cleavage of the substrate by the protease variant
# Conditions: temperature: 34 °C; time window: 0-4 h after rhamnose induction
# Description: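 In vivo DNA recorder in E. coli TOP10(DE3) ΔrhaA at 34 °C. Each TEVp single-site mutant (parent TEVp 0) is paired with a single-site variant of the 7-mer TEVs (canonical ENLYFQ|S). The substrate sits between flexible linkers in a Bxb1-sfGFP-TEVs-SsrA fusion, so cleavage stabilises Bxb1 and speeds flipping of a recombination array, read by NGS. The value is the raw area under the fraction-flipped curve over 0-4 h after rhamnose induction (AUC4h), with ≥20 reads per time point. It is not background-subtracted; inactive controls average about 0.047.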
# 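Note: Bxb1 expression induced with 0.2% (w/v) L-rhamnose at OD600 near 0.5, cultures sampled hourly, flipped fraction per protease–substrate barcode pair counted by paired-end Illumina sequencing.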
Variant,area with substrate ENAYFQS,area with substrate ENDYFQS,area with substrate ENEYFQS,area with substrate ENFYFQS,area with substrate ENGYFQS,area with substrate ENIYFQS,area with substrate ENKYFQS,area with substrate ENNYFQS,area with substrate ENPYFQS,area with substrate ENQYFQS,area with substrate ENRYFQS,area with substrate ENWYFQS,area with substrate ENCYFQS,area with substrate ENHYFQS,area with substrate ENMYFQS,area with substrate ENTYFQS,area with substrate ENVYFQS,area with substrate ENSYFQS,area with substrate ENYYFQS
MGESLFKGPRDYNPISSSICHLTNESDGHTTSLYGIGFGPFIITNKHLFRRNNGTLVVQSLHGVFKVKDTTTLQQHLVDGRDMIIIRMPKDFPPFPQKLKFREPQREERICLVTTNFQTKSMSSMVSDTSCTFPSGDGIFWKHWIQTKDGQCGSPLVSTRDGFIVGIHSASNFTNTNNYFTSVPKNFMELLANQEAQQWVSGWRLNADSVLWGGHKVFMVKPEEPFQPVKEATQL [T192A],0.0677,0.0593,0.0779,0.0438,0.0585,0.105,0.0708,0.0697,0.0545,0.0652,0.065,0.0682,–,–,–,–,–,–,–
MGESLFKGPRDYNPISSSICHLTNESDGHTTSLYGIGFGPFIITNKHLFRRNNGTLVVQSLHGVFKVKDTTTLQQHLVDGRDMIIIRMPKDFPPFPQKLKFREPQREERICLVTTNFQTKSMSSMVSDTSCTFPSGDGIFWKHWIQTKDGQCGSPLVSTRDGFIVGIHSASNFTNTNNYFTSVPKNFMELLFNQEAQQWVSGWRLNADSVLWGGHKVFMVKPEEPFQPVKEATQL [T192F],0.0682,0.0575,0.0427,0.063,0.0583,0.1,0.0571,0.0592,0.0477,–,–,0.0449,0.0594,0.0474,0.0766,0.0702,0.0737,–,–
MGESLFKGPRDYNPISSSICHLTNESDGHTTSLYGIGFGPFIITNKHLFRRNNGTLVVQSLHGVFKVKDTTTLQQHLVDGRDMIIIRMPKDFPPFPQKLKFREPQREERICLVTTNFQTKSMSSMVSDTSCTFPSGDGIFWKHWIQTKDGQCGSPLVSTRDGFIVGIHSASNFTNTNNYFTSVPKNFMELLTTQEAQQWVSGWRLNADSVLWGGHKVFMVKPEEPFQPVKEATQL [N193T],0.0594,–,0.0694,–,–,–,–,0.0597,–,0.0621,–,0.0694,–,0.0686,–,–,0.056,0.0388,–
MGESLFKGPRDYNPISSSICHLTNESDGHTTSLYGIGFGPFIITNKHLFRRNNGTLVVQSLHGVFKVKDTTTLQQHLVDGRDMIIIRMPKDFPPFPQKLKFREPQREERICLVTTNFQTKSMSSMVSDTSCTFPSGDGIFWKHWIQTKDGQCGSPLVSTRDGFIVGIHSASNFTNTNNYFTSVPKNFMELLTNTEAQQWVSGWRLNADSVLWGGHKVFMVKPEEPFQPVKEATQL [Q194T],0.0536,0.0552,0.059,0.065,0.0666,–,–,0.0541,0.0592,0.059,–,0.0598,0.0539,0.0687,0.0756,–,0.0903,0.0937,0.0576
MGESLFKGPRDYNPISSSICHLTNESDGHTTSLYGIGFGPFIITNKHLFRRNNGTLVVQSLHGVFKVKDTTTLQQHLVDGRDMIIIRMPKDFPPFPQKLKFREPQREERICLVTTNFQTKSMSSMVSDTSCTFPSGDGIFWKHWIQTKDGQCGSPLVSTRDGFIVGIHSASNFTNTNNYFTSVPKNFMELLTNQMAQQWVSGWRLNADSVLWGGHKVFMVKPEEPFQPVKEATQL [E195M],0.0393,0.0739,0.0587,0.0663,0.0596,–,–,0.07,0.0524,0.0633,0.0665,–,–,–,0.0678,0.0708,0.0573,0.0729,–
MGESLFKGPRDYNPISSSICHLTNESDGHTTSLYGIGFGPFIITNKHLFRRNNGTLVVQSLHGVFKVKDTTTLQQHLVDGRDMIIIRMPKDFPPFPQKLKFREPQREERICLVTTNFQTKSMSSMVSDTSCTFPSGDGIFWKHWIQTKDGQCGSPLVSTRDGFIVGIHSASNFTNTNNYFTSVPKNFMELLTNQEEQQWVSGWRLNADSVLWGGHKVFMVKPEEPFQPVKEATQL [A196E],0.0543,0.0659,0.0666,–,0.045,–,0.0426,0.0581,0.0657,0.051,0.0533,0.0643,0.0647,0.0692,–,0.0631,0.0748,0.0632,0.0469
MGESLFKGPRDYNPISSSICHLTNESDGHTTSLYGIGFGPFIITNKHLFRRNNGTLVVQSLHGVFKVKDTTTLQQHLVDGRDMIIIRMPKDFPPFPQKLKFREPQREERICLVTTNFQTKSMSSMVSDTSCTFPSGDGIFWKHWIQTKDGQCGSPLVSTRDGFIVGIHSASNFTNTNNYFTSVPKNFMELLTNQEKQQWVSGWRLNADSVLWGGHKVFMVKPEEPFQPVKEATQL [A196K],0.1,0.0648,0.0595,0.052,0.0656,0.105,0.0396,0.0529,0.0522,0.0638,0.0586,0.0094,0.0704,0.0544,–,0.0558,0.0743,0.0666,–
MGESLFKGPRDYNPISSSICHLTNESDGHTTSLYGIGFGPFIITNKHLFRRNNGTLVVQSLHGVFKVKDTTTLQQHLVDGRDMIIIRMPKDFPPFPQKLKFREPQREERICLVTTNFQTKSMSSMVSDTSCTFPSGDGIFWKHWIQTKDGQCGSPLVSTRDGFIVGIHSASNFTNTNNYFTSVPKNFMELLTNQEAQDWVSGWRLNADSVLWGGHKVFMVKPEEPFQPVKEATQL [Q198D],0.0504,0.0691,0.0562,0.0715,0.0725,–,0.0601,–,–,0.0619,0.0556,0.0451,–,0.0648,0.0551,0.063,0.0758,0.0611,–
MGESLFKGPRDYNPISSSICHLTNESDGHTTSLYGIGFGPFIITNKHLFRRNNGTLVVQSLHGVFKVKDTTTLQQHLVDGRDMIIIRMPKDFPPFPQKLKFREPQREERICLVTTNFQTKSMSSMVSDTSCTFPSGDGIFWKHWIQTKDGQCGSPLVSTRDGFIVGIHSASNFTNTNNYFTSVPKNFMELLTNQEAQEWVSGWRLNADSVLWGGHKVFMVKPEEPFQPVKEATQL [Q198E],0.0666,0.0553,–,0.0655,–,0.124,–,0.0796,–,0.0579,–,–,0.0706,–,–,0.0603,–,0.0666,0.0561
MGESLFKGPRDYNPISSSICHLTNESDGHTTSLYGIGFGPFIITNKHLFRRNNGTLVVQSLHGVFKVKDTTTLQQHLVDGRDMIIIRMPKDFPPFPQKLKFREPQREERICLVTTNFQTKSMSSMVSDTSCTFPSGDGIFWKHWIQTKDGQCGSPLVSTRDGFIVGIHSASNFTNTNNYFTSVPKNFMELLTNQEAQRWVSGWRLNADSVLWGGHKVFMVKPEEPFQPVKEATQL [Q198R],0.0721,0.0646,–,0.0517,0.105,–,0.0676,0.0601,–,0.0557,0.0541,–,0.0678,0.0557,0.079,0.0734,0.0775,0.057,–
MGESLFKGPRDYNPISSSICHLTNESDGHTTSLYGIGFGPFIITNKHLFRRNNGTLVVQSLHGVFKVKDTTTLQQHLVDGRDMIIIRMPKDFPPFPQKLKFREPQREERICLVTTNFQTKSMSSMVSDTSCTFPSGDGIFWKHWIQTKDGQCGSPLVSTRDGFIVGIHSASNFTNTNNYFTSVPKNFMELLTNQEAQQCVSGWRLNADSVLWGGHKVFMVKPEEPFQPVKEATQL [W199C],0.061,0.0492,0.0594,–,0.0654,–,0.0519,–,–,0.0542,0.0536,–,0.067,–,–,0.0582,–,0.0584,0.041
MGESLFKGPRDYNPISSSICHLTNESDGHTTSLYGIGFGPFIITNKHLFRRNNGTLVVQSLHGVFKVKDTTTLQQHLVDGRDMIIIRMPKDFPPFPQKLKFREPQREERICLVTTNFQTKSMSSMVSDTSCTFPSGDGIFWKHWIQTKDGQCGSPLVSTRDGFIVGIHSASNFTNTNNYFTSVPKNFMELLTNQEAQQLVSGWRLNADSVLWGGHKVFMVKPEEPFQPVKEATQL [W199L],0.0576,0.0746,0.0566,0.0416,–,0.0958,0.0728,–,–,0.0617,0.0654,–,0.0609,0.06,–,0.0465,0.0633,–,0.0696
MGESLFKGPRDYNPISSSICHLTNESDGHTTSLYGIGFGPFIITNKHLFRRNNGTLVVQSLHGVFKVKDTTTLQQHLVDGRDMIIIRMPKDFPPFPQKLKFREPQREERICLVTTNFQTKSMSSMVSDTSCTFPSGDGIFWKHWIQTKDGQCGSPLVSTRDGFIVGIHSASNFTNTNNYFTSVPKNFMELLTNQEAQQRVSGWRLNADSVLWGGHKVFMVKPEEPFQPVKEATQL [W199R],0.0874,0.0582,0.0767,0.0633,0.0687,0.0644,0.069,0.06,0.0624,0.067,0.0724,–,0.066,0.0732,–,0.0573,0.0631,0.0599,0.0609
MGESLFKGPRDYNPISSSICHLTNESDGHTTSLYGIGFGPFIITNKHLFRRNNGTLVVQSLHGVFKVKDTTTLQQHLVDGRDMIIIRMPKDFPPFPQKLKFREPQREERICLVTTNFQTKSMSSMVSDTSCTFPSGDGIFWKHWIQTKDGQCGSPLVSTRDGFIVGIHSASNFTNTNNYFTSVPKNFMELLTNQEAQQWVAGWRLNADSVLWGGHKVFMVKPEEPFQPVKEATQL [S201A],0.0724,–,–,–,0.073,–,0.0574,–,–,0.0646,0.0842,–,0.0681,–,0.0551,–,–,0.06,0.0611
MGESLFKGPRDYNPISSSICHLTNESDGHTTSLYGIGFGPFIITNKHLFRRNNGTLVVQSLHGVFKVKDTTTLQQHLVDGRDMIIIRMPKDFPPFPQKLKFREPQREERICLVTTNFQTKSMSSMVSDTSCTFPSGDGIFWKHWIQTKDGQCGSPLVSTRDGFIVGIHSASNFTNTNNYFTSVPKNFMELLTNQEAQQWVSHWRLNADSVLWGGHKVFMVKPEEPFQPVKEATQL [G202H],0.0534,–,0.0532,0.0582,–,–,–,0.0709,0.061,0.0683,0.0609,–,0.0606,–,–,0.0592,–,0.0569,0.0511
MGESLFKGPRDYNPISSSICHLTNESDGHTTSLYGIGFGPFIITNKHLFRRNNGTLVVQSLHGVFKVKDTTTLQQHLVDGRDMIIIRMPKDFPPFPQKLKFREPQREERICLVTTNFQTKSMSSMVSDTSCTFPSGDGIFWKHWIQTKDGQCGSPLVSTRDGFIVGIHSASNFTNTNNYFTSVPKNFMELLTNQEAQQWVSYWRLNADSVLWGGHKVFMVKPEEPFQPVKEATQL [G202Y],0.051,0.0604,0.066,–,0.0385,–,0.0555,–,–,0.0664,–,0.0358,–,–,–,0.0491,–,–,0.0495
MGESLFKGPRDYNPISSSICHLTNESDGHTTSLYGIGFGPFIITNKHLFRRNNGTLVVQSLHGVFKVKDTTTLQQHLVDGRDMIIIRMPKDFPPFPQKLKFREPQREERICLVTTNFQTKSMSSMVSDTSCTFPSGDGIFWKHWIQTKDGQCGSPLVSTRDGFIVGIHSASNFTNTNNYFTSVPKNFMELLTNQEAQQWVSGWCLNADSVLWGGHKVFMVKPEEPFQPVKEATQL [R204C],0.0937,0.0647,0.0635,0.0679,0.0577,0.114,–,0.0606,0.0621,0.0619,0.055,–,0.0518,0.0713,0.0808,0.0731,0.093,0.0633,–
MGESLFKGPRDYNPISSSICHLTNESDGHTTSLYGIGFGPFIITNKHLFRRNNGTLVVQSLHGVFKVKDTTTLQQHLVDGRDMIIIRMPKDFPPFPQKLKFREPQREERICLVTTNFQTKSMSSMVSDTSCTFPSGDGIFWKHWIQTKDGQCGSPLVSTRDGFIVGIHSASNFTNTNNYFTSVPKNFMELLTNQEAQQWVSGWRLSADSVLWGGHKVFMVKPEEPFQPVKEATQL [N206S],0.0792,0.0577,0.0477,–,0.0471,–,–,–,0.0726,0.0533,0.0673,–,0.0733,0.057,–,0.0703,0.0688,0.0598,–
